In the supplement of paper PMC9446081 one finds relative growth data, which are given here for 38 compounds.

Structures are written as SMILES. Hit rate of the full screen: of about 39,000 compounds, about 220 (0.56%) showed activity. Some of the results follow.
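Also: static incubation at 37 °C against the wild-type strain, values averaged over two biological replicates.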

The test system of the test is Escherichia coli K-12 BW25113. In words: relative growth (OD600 normalised to plate interquartile mean) (fraction); higher = less growth inhibition, active = 0.2 or less. Conditions: 50 µM; LB; incubation time: overnight (16-24 h).
As for `CCOC(=O)C[n+]1ccccc1C`, the relative growth is inactive: 1.02.

Regarding `CCOC(=O)c1ccc(NC(=S)N[C@@H](NC(=O)c2ccc(Br)cc2)C(Cl)(Cl)Cl)cc1`, the relative growth is inactive: 0.976.

As to `O=S1(=O)[C@@H]2C[C@H]3C=C[C@]2(CN1C1CC1)O3`, the relative growth is inactive: 1.01.

Consider `Cn1nnc2c1[C@H](COCCN1CCCC1)CN(S(C)(=O)=O)C2`, for which the relative growth was inactive: 1.03.

As for `CN1C(=O)c2cc(NC(=O)c3cscn3)ccc2OC[C@@H]2O[C@@H](CC(=O)N3CCOCC3)CC[C@@H]21`, the relative growth was inactive: 0.971.

`C[C@@H]1CCCCO[C@@H](CN(C)C(=O)Nc2ccc(C(F)(F)F)cc2)[C@@H](C)CN([C@H](C)CO)C(=O)c2cc(NC(=O)Nc3ccc4c(c3)OCO4)ccc2O1`: the relative growth is inactive: 0.966.

For the compound `C[C@@H]1CN([C@@H](C)CO)C(=O)Cc2cc(NC(=O)C3CC3)ccc2O[C@@H]1CN(C)Cc1ccc(C(=O)O)cc1`, the relative growth is inactive: 0.983.

As for `COc1ccc(NC(=O)Nc2ccc3c(c2)C(=O)N([C@H](C)CO)C[C@@H](C)[C@@H](CN(C)S(=O)(=O)c2c(C)noc2C)OCCCC[C@H](C)O3)cc1`, the relative growth is inactive: 0.992.

On to `CC[C@H]1NCCNC1=O`, for which the relative growth is inactive: 0.983.

Turning to `Cc1ccc(S[C@]2(C(=O)NCC(C)C)CC(=O)N(Cc3cc(C(F)(F)F)cc(C(F)(F)F)c3)[C@@H]2c2ccc(CO)cc2I)cc1`, the relative growth is inactive: 0.874.

In the case of `C[C@@H]1CN([C@H](C)CO)C(=O)c2cc(NC(=O)Nc3ccccc3)ccc2O[C@@H](C)CCCCO[C@H]1CN(C)C(=O)Cc1ccccc1`, the relative growth was inactive: 0.998.

Regarding `C[C@@H]1CN([C@@H](C)CO)C(=O)c2cc(NC(=O)C3CC3)ccc2O[C@H]1CN(C)Cc1ccc(Oc2ccccc2)cc1`, the relative growth is inactive: 0.993.

Take `CN(C)Cc1cn(CC[C@@H]2CC[C@@H](NC(=O)Cc3cccnc3)[C@@H](CO)O2)nn1`: the relative growth was inactive: 1.01.

Regarding `C[C@@H]1CCCCO[C@@H](CN(C)Cc2ccccc2)[C@H](C)CN([C@@H](C)CO)C(=O)c2cc(NC(=O)CCC(F)(F)F)ccc2O1`, the relative growth was inactive: 1.01.

Consider `C[C@H]1CN([C@@H](C)CO)S(=O)(=O)c2ccc(C#CCN(C)C)cc2O[C@@H]1CN(C)C(=O)Nc1ccccc1F`, for which the relative growth is inactive: 1.02.

`COc1ccc(S(=O)(=O)Nc2ccc3c(c2)C(=O)N([C@@H](C)CO)C[C@@H](C)[C@@H](CN(C)C(=O)C2CCCCC2)OCCCC[C@H](C)O3)cc1`: the relative growth was inactive: 1.

In the case of `C=CCC[C@@H](Cc1ccc(F)cc1)C(=O)O[C@@H](CNC(=O)[C@@H](CC=C)CC(=O)N[C@@H](CO)Cc1ccccc1)c1ccccc1`, the relative growth is inactive: 0.991.

As to `Cc1ccc(-n2cnc3cc(NCc4cccs4)ccc32)cc1`, the relative growth is inactive: 0.977.

As to `C[C@@H]1CCCCO[C@@H](CN(C)C(=O)NC2CCCCC2)[C@@H](C)CN([C@H](C)CO)C(=O)c2cc(NC(=O)NC3CCCCC3)ccc2O1`, the relative growth was inactive: 1.01.

In the case of `C[C@H]1CN([C@@H](C)CO)C(=O)c2cc(NS(=O)(=O)c3ccc(F)cc3)ccc2O[C@@H]1CN(C)Cc1ccc(Cl)c(Cl)c1`, the relative growth is inactive: 0.904.

As to `O=C(C[C@@H]1CC[C@H]2[C@@H](COC[C@H](O)CN2S(=O)(=O)c2cccc(Cl)c2)O1)NCc1ccncn1`, the relative growth was inactive: 0.983.

With `C[C@@H]1CCCCO[C@@H](CN(C)Cc2ccc(Cl)c(Cl)c2)[C@H](C)CN([C@H](C)CO)C(=O)c2cc(NC(=O)Nc3ccc4c(c3)OCO4)ccc2O1`, the relative growth was inactive: 0.993.

Regarding `C[C@@H]1CN([C@H](C)CO)C(=O)Cc2cc(NC(=O)Cc3ccccc3)ccc2O[C@H]1CN(C)Cc1ccc(-c2ccccc2)cc1`, the relative growth was inactive: 1.02.

As to `O=C(C[C@@H]1C[C@@H]2c3cc(NS(=O)(=O)c4ccc(F)cc4)ccc3O[C@@H]2[C@@H](CO)O1)NCc1ccccn1`, the relative growth was inactive: 0.987.

For `COCC#Cc1ccc2c(c1)O[C@H](CN(C)S(=O)(=O)c1cccc(F)c1)[C@H](C)CN([C@@H](C)CO)S2(=O)=O`, the relative growth was inactive: 1.02.

Regarding `C[C@@H]1CCCCO[C@H](CN(C)S(=O)(=O)c2ccccc2)[C@@H](C)CN([C@H](C)CO)C(=O)c2cc(NC(=O)Nc3ccc(C(F)(F)F)cc3)ccc2O1`, the relative growth was inactive: 0.824.

For the compound `C[C@H]1CN([C@@H](C)CO)C(=O)Cc2cc(NC(=O)Nc3ccc(F)cc3)ccc2O[C@H]1CN(C)Cc1ccc(Cl)c(Cl)c1`, the relative growth was inactive: 1.

Take `C[C@H]1CCCCO[C@@H](CN(C)Cc2ccc3c(c2)OCO3)[C@@H](C)CN([C@@H](C)CO)C(=O)c2cc(NS(=O)(=O)c3ccccc3)ccc2O1`: the relative growth is inactive: 1.02.

Take `CCNC(=O)C[C@H]1C=C[C@H](NC(=O)C2CCOCC2)[C@H](CO)O1`: the relative growth is inactive: 0.991.

Turning to `CN1CCN(C(=O)C[C@@H]2CC[C@@H]3[C@H](COc4ccc(NC(=O)c5cccs5)cc4C(=O)N3C)O2)CC1`, the relative growth was inactive: 0.977.

Regarding `O=C(NCc1nc2ccccc2[nH]1)C1=C[C@H](c2ccc(Br)cc2)C[C@H](OCc2ccc(CO)cc2)O1`, the relative growth is inactive: 0.983.

For the compound `C[C@@H]1CN([C@H](C)CO)C(=O)c2cc(NC(=O)Cn3cnnn3)ccc2O[C@H]1CN(C)S(C)(=O)=O`, the relative growth is inactive: 1.01.

`C[C@H]1CN([C@@H](C)CO)C(=O)c2cc(NC(=O)C3CCCCC3)ccc2O[C@H]1CN(C)Cc1ccc(Cl)c(Cl)c1`: the relative growth is inactive: 0.987.

`C[C@@H]1CN([C@H](C)CO)C(=O)c2cc(NS(=O)(=O)c3cn(C)cn3)ccc2O[C@H]1CN(C)C(=O)Nc1ccc(F)cc1`: the relative growth is inactive: 1.02.

As to `CO[C@H](CN(C)C(=O)C1CCOCC1)[C@H](C)CN(C(=O)Nc1ccc(C(F)(F)F)cc1)[C@@H](C)CO`, the relative growth was inactive: 0.938.

On to `C[C@@H]1CCCCO[C@@H](CN(C)C(=O)C2CCCCC2)[C@H](C)CN([C@@H](C)CO)C(=O)c2cc(NC(=O)Cc3ccccc3)ccc2O1`, for which the relative growth is inactive: 0.999.

For `C[C@H](CO)N1C[C@H](C)[C@H](CN(C)Cc2ccc(C(F)(F)F)cc2)OCCCC[C@H](C)Oc2ccc(NS(=O)(=O)c3cn(C)cn3)cc2C1=O`, the relative growth was inactive: 0.987.

In the case of `COc1ccccc1C#Cc1ccc2c(c1)O[C@H](CN(C)Cc1cncnc1)[C@H](C)CN([C@@H](C)CO)S2(=O)=O`, the relative growth is inactive: 1.01.
